# In PubChem BioAssay AID2451 (National Center for Advancing Translational Sciences (NCATS), 2010):
# “And” between values parts separate entries of the source, which are not always exact repeats. Equal entries are not always repeated. The campaign covered roughly 290,000 compounds. About 2,100 (0.72%) were called active. The shares of active, inactive and inconclusive entries below differ from those in the screen. The call rests on the fitted dose curve; in most records, active means well fitted inhibition curve with a large enough effect; inconclusive means small, poorly fitted or top-dose-only effect, or effect the other way; inactive means flat fitted curve, though single readings scatter. Potencies beside an inconclusive call are fits to weak or partial responses and may not hold up.
# Target: Fructose-bisphosphate aldolase (Giardia intestinalis (strain ATCC 50803 / WB clone C6)) (UniProt A8B2U2)
# Sequence of UniProt A8B2U2 (A8B2U2 whole entry, looked up): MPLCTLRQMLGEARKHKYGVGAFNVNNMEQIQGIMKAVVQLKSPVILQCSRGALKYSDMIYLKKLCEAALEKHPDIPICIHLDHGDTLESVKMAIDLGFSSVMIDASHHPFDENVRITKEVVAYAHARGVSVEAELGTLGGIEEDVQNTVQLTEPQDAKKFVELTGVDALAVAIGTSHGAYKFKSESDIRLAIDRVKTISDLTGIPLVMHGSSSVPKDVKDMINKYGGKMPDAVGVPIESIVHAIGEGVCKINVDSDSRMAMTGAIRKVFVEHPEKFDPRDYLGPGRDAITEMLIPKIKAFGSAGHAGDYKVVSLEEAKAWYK
# Assay: qHTS Assay for Inhibitors of Fructose-1,6-bisphosphate Aldolase from Giardia Lamblia; further: nearly all actives have a fitted effect of over 55% in size
# Details: purified Giardia FBPA; series mostly up to 59.6 µM
# In short: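 Giardia FBPA (40 nM reagent) was preincubated 10 min at RT with compound (up to 57.5 uM final), then substrate plus GAPDH/TPI/NAD/arsenate coupling system with diaphorase/resazurin was added; resorufin fluorescence (525/598 nm) was read after 20 min.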
# Potency means the concentration at half of the fitted maximal effect; tags describe the fitted curve by direction and shape.
row,Structure (SMILES),Potency
1,C1CCCCCC(=NNc2nn[nH]n2)CCCCC1,active: 15.8 µM
2,CC(C)=NOC(=O)c1c(C)noc1-c1snnc1C,inactive
3,Cn1cc(C(c2ccccc2OCC(=O)O)c2cn(C)c3ccccc23)c2ccccc21,"inconclusive: 31.6 µM [activator, partial curve]"
4,COc1ccc(C2CC(c3cccs3)=NN2c2nc(-c3ccccc3)cs2)cc1OC (centres undefined),"inconclusive: 28.2 µM [inhibitor, partial curve]"
5,CC(NC1CCN(Cc2ccccc2)CC1)c1ccc(F)cc1 (centres undefined),"inconclusive: 22.4 µM [inhibitor, partial curve]"
6,COc1cccc(NC(=O)c2ccc(-c3ccccc3[N+](=O)[O-])o2)c1,inactive
7,Cc1nc(N)sc1-c1csc(Nc2ccc(S(N)(=O)=O)cc2)n1,"inconclusive: 7.94 µM [inhibitor, partial curve]"
8,Cc1cc(C)cc(OCC(=O)Nc2ccc(N3CCCC3)cc2)c1,inactive
9,CCOC(=O)NC(Nc1sc2c(c1C(N)=O)CCCC2)(C(=O)OCC)C(F)(F)F (centres undefined),"inconclusive: 9.98 µM [inhibitor, partial curve]"
10,CCc1nnc(NC(=O)CN2CCN(Cc3ccc(F)cc3)CC2)s1,"inconclusive: 3.98 µM [inhibitor, full curve]"
11,CCn1c2ccccc2c2n[nH]c(=S)nc21,inactive
12,Brc1ccc(CN2C3=NCCCN3c3ccccc32)cc1,inactive
13,CN1[C@@H]2CC[C@H]1CC(OC(c1ccccc1)c1ccccc1)C2 (some centres undefined),inactive
14,COc1cc(C(=O)O/N=C2\C=CC(=O)C=C2C)cc(OC)c1OC,active: 3.97 µM
15,COc1cccc(CNC2CCCCCCC2)c1OC,"inconclusive: 15.8 µM [inhibitor, partial curve]"
16,COc1ccccc1NC(=S)NNC(=O)c1nn(C)c(C)c1Br,"inconclusive: 17.7 µM [activator, single point]"
17,CCOC(=O)c1sc(NCCNc2nc(C)c(C(=O)OCC)s2)nc1C,inactive
18,C=CCc1cc(Cl)ccc1OCCOCCNC(C)CC (centres undefined),"inconclusive: 19.9 µM [inhibitor, partial curve]"
19,COc1ccc(OCC(=O)Nc2cccc(NC(=O)c3ccco3)c2)cc1,inactive
20,Cc1nn(C(C)C(=O)NCCCN2CCCC2)c(=O)c2nn(-c3ccccc3)c(C)c12 (centres undefined),"inconclusive: 15.8 µM [inhibitor, partial curve]"
21,C=CCn1c(N)c(S(=O)(=O)c2cccs2)c2nc3ccccc3nc21,"inconclusive: 22.3 µM [inhibitor, partial curve]"
22,CCN1CCc2c(sc(NC(=S)NC(=O)c3ccccc3)c2C#N)C1,"inconclusive: 19.9 µM [inhibitor, single point]"
23,CC(=O)NC1C(=O)N(CCN2CCOCC2)c2ccc(C)cc21 (centres undefined),"inconclusive: 28.2 µM [activator, partial curve]"
24,CCC1CCc2c(sc3nc(SCC(=O)NCc4ccco4)n(-c4ccccc4)c(=O)c23)C1 (centres undefined),inactive
25,Cc1cccc(COc2ccc(/C=N/NC(=O)c3nnn(-c4nonc4N)c3CN3CCCCC3)cc2)c1,"inconclusive: 39.8 µM [inhibitor, single point]"

row,Structure (SMILES),Potency
1,Cc1ccc(N/N=C/c2c(O)cc(C)oc2=O)cc1,"inconclusive: 15.8 µM [inhibitor, partial curve]"
2,COC(=O)CN1C(=O)C2(C(C#N)=C(N)Oc3c2c(C)nn3-c2ccccc2)c2ccccc21 (centres undefined),"inconclusive: 1.77 µM [inhibitor, full curve]"
3,Cc1ccc(C)c(NC(=O)CCN2CCc3ccccc3C2)c1,"inconclusive: 19.9 µM [inhibitor, single point]"
4,COc1ccc(C2=CC3=C(Br)C(=O)C(C)(OC(=O)c4ccco4)C(=O)C3=CO2)cc1 (centres undefined),"inconclusive: 22.3 µM [inhibitor, partial curve]"
5,CC(=O)[C@@H]1[C@@H]2C(=O)N(c3ccc(F)c(Cl)c3)C(=O)[C@@H]2C2c3ccccc3C=CN21 (some centres undefined),"inconclusive: 3.54 µM [inhibitor, single point]"
6,c1ccc(-c2nc(N3CCCCCC3)c3ccccc3n2)nc1,inactive
7,CC(=O)c1sc(NC(=O)c2cnc(Cl)c(Cl)c2)nc1C,"inconclusive: 14.1 µM [inhibitor, single point]"
8,Cc1ccc(Nc2c([N+](=O)[O-])cc(C(=O)N3CC(=O)Nc4ccccc43)cc2[N+](=O)[O-])c(C)c1,"inconclusive: 15.8 µM [inhibitor, partial curve]"
9,O=C(CC1Sc2ncnn2C1=O)Nc1ccc(Br)cc1 (centres undefined),"inconclusive: 2.81 µM [inhibitor, partial curve]"
10,NNC(=O)c1ccc(Cn2cc(Cl)cn2)o1,inactive
11,CC1=NN(c2ccc(C(=O)O)cc2)C(=O)/C1=C\c1ccc(OC(=O)c2cccs2)cc1,inactive
12,CCCCC1=CC2=C(c3ccco3)C(=O)C(C)(OC(=O)c3ccc(OC)cc3)C(=O)C2=CN1CC1CC1 (centres undefined),"inconclusive: 1.99 µM [inhibitor, full curve] and inconclusive: 1.58 µM [inhibitor, partial curve]"
13,COc1cc(NC(=O)c2cccs2)c(C(=O)OCC(=O)NC(=O)NC(C)(C)C)cc1OC,inactive
14,CCC(C)c1ccccc1OCCn1ccnc1 (centres undefined),"inconclusive: 11.2 µM [inhibitor, partial curve]"
15,Cc1cc(-c2ccco2)c(C#N)c2nc3ccccc3n12,active: 1.26 µM
16,CC1(C)CC(=O)C2=C(C1)N(c1cccnc1)C(N)=C(C#N)C2c1cccs1 (centres undefined),"inconclusive: 14.1 µM [inhibitor, partial curve]"
17,CCOC(=O)CNc1c(-c2ccc(O)cc2)nc2ccc(Cl)cn12,"inconclusive: 15.8 µM [inhibitor, single point]"
18,Clc1ccc2nc(-c3ccc(Br)s3)cn2c1,"inconclusive: 15.8 µM [inhibitor, single point]"
19,CC(C)(C)C1=Nn2c(nnc2-c2n[nH]c3c2CCC3)SC1,"inconclusive: 15.8 µM [inhibitor, single point]"
20,S=C(Nc1ccc(Oc2ccccc2)cc1)N(CCCN1CCOCC1)Cc1ccccn1,"inconclusive: 22.3 µM [inhibitor, single point]"
21,Cc1ccc(N2C(=O)[C@@H]3C(c4cccnc4)=NO[C@@H]3C2=O)cc1,inactive
22,O=[N+]([O-])c1ccc(N2CCN(Cc3ccncc3)CC2)cc1,"inconclusive: 20 µM [inhibitor, partial curve]"
23,Cc1ccc(C(C)(C)C)cc1S(=O)(=O)NC(=O)c1ccccc1,"inconclusive: 15.8 µM [activator, single point]"
24,COC(=O)c1ccc(OCC(=O)c2ccccc2OC)cc1,inactive
25,O=C(O)C1CCCCC1C(=O)NCCc1ccc(F)cc1 (centres undefined),inactive

row,Structure (SMILES),Potency
1,Cc1ccc(C)c(OCCCCCn2ccnc2)c1,inactive
2,C/C(=N\Nc1nccnc1Cl)c1ccc(O)cc1,"inconclusive: 11.2 µM [inhibitor, partial curve]"
3,COc1ccc(S(=O)(=O)N(C)CC(=O)N2CCN(c3ccccc3)CC2)cc1,inactive
4,COc1cc(Br)c(CNc2cc(C)ccc2C)cc1OC,active: 20 µM
5,CCCCOc1ccc(CN2CCSCC2)cc1,"inconclusive: 12.6 µM [inhibitor, partial curve]"
6,OC(Cn1cnnc1)c1ccccc1 (centres undefined),"inconclusive: 25.1 µM [inhibitor, partial curve]"
7,COc1ccc(NC2=CC(=O)N(C)C2=O)cc1,inactive
8,COCc1cc(CN2CCCC2)c(O)c2ncccc12,"inconclusive: 7.92 µM [inhibitor, full curve]"
9,O=C(CN1CCCCC1)Nc1c2c(nc3ccccc13)N(c1ccccc1)CC2,"inconclusive: 19.9 µM [inhibitor, partial curve]"
10,COc1ccc(CNCCc2c[nH]c3ccccc23)cc1OC,active: 17.8 µM
11,Cc1cc(N2C(=O)C3C4C=CC(C4)C3C2=O)ccc1NC(=O)c1cccs1 (centres undefined),inactive
12,COc1cc(CNCc2ccc(OC)c3ccccc23)cc(OC)c1OC,"inconclusive: 15.8 µM [inhibitor, partial curve]"
13,Cc1cc(Cl)cc(C)c1OCCNCc1ccccc1,"inconclusive: 28.2 µM [inhibitor, single point]"
14,Cc1ccc2c(c1)C(=C(C#N)C#N)C(=O)N2CCN1CCCCC1,"inconclusive: 11.2 µM [inhibitor, partial curve]"
15,CC(=O)Nc1ccc(S(=O)(=O)N2CCN(C(=O)c3ncoc3-c3ccccc3)CC2)cc1,inactive
16,Oc1c(N=NC(=S)Nc2ccccc2F)c2ccccc2n1Cc1cccc(Cl)c1,inactive
17,Cc1ccc(OCC(O)CN2CCOCC2)cc1C (centres undefined),"inconclusive: 12.6 µM [inhibitor, partial curve]"
18,Cc1cc(C)n2nc(C(=O)NNC(=O)c3ccc(Cl)cc3)nc2n1,"inconclusive: 44.6 µM [inhibitor, partial curve]"
19,Cc1ccc2nc(NCc3ccccc3)c(C#N)cc2c1,"inconclusive: 15.8 µM [inhibitor, single point]"
20,Cc1nn2c(=S)[nH]nc2[nH]c1=O,active: 11.2 µM
21,COc1ccc(CCNCc2ccccc2N2CCCC2)cc1,"inconclusive: 12.6 µM [inhibitor, partial curve]"
22,COc1ccc(CCNC(=O)c2cc3c(=O)n4cccc(C)c4nc3n(Cc3ccncc3)c2=N)cc1,inactive
23,C=CCN(CC=C)CCOc1cccc2ccccc12,"inconclusive: 19.9 µM [inhibitor, partial curve]"
24,CCCCOC(=O)c1ccc(NC(=S)NC(=O)c2c(Br)c(C)nn2C)cc1,"inconclusive: 12.6 µM [inhibitor, partial curve]"
